Assay results: PubChem BioAssay AID1460 (National Center for Advancing Translational Sciences (NCATS), 2008)
Hit rate of the full screen: of about 270,000 compounds, about 5,800 (2.1%) were called active. Inconclusive means that the source gave no clear call. Such entries were picked first, then a sample of the others. The call rests on the fitted dose curve; in most records, active means well fitted inhibition curve with a large enough effect; inconclusive means small, poorly fitted or top-dose-only effect; inactive means flat fitted curve, though single readings scatter. Potencies beside an inconclusive call are fits to weak or partial responses and may not hold up. The source holds several records for some structures; these can differ, active in one and inactive in another.
Further: nearly all actives have a fitted effect of over 55% in size.
On the % scale 0 is the no-effect control and ±100 the full control effect; potency means the concentration at half of the fitted maximal effect; tags describe the fitted curve by direction and shape.

What follows are compounds tested against Microtubule-associated protein tau (Homo sapiens) (UniProt P10636) (assay: qHTS for Inhibitors of Tau Fibril Formation, Thioflavin T Binding). Settings: recombinant tau K18 P301L, heparin-induced fibrillization, ThT fluorescence; series mostly up to 57.4 µM; activity, negative = inhibition: at the top concentration.
UniProt P10636, sequence (P10636 whole entry, looked up): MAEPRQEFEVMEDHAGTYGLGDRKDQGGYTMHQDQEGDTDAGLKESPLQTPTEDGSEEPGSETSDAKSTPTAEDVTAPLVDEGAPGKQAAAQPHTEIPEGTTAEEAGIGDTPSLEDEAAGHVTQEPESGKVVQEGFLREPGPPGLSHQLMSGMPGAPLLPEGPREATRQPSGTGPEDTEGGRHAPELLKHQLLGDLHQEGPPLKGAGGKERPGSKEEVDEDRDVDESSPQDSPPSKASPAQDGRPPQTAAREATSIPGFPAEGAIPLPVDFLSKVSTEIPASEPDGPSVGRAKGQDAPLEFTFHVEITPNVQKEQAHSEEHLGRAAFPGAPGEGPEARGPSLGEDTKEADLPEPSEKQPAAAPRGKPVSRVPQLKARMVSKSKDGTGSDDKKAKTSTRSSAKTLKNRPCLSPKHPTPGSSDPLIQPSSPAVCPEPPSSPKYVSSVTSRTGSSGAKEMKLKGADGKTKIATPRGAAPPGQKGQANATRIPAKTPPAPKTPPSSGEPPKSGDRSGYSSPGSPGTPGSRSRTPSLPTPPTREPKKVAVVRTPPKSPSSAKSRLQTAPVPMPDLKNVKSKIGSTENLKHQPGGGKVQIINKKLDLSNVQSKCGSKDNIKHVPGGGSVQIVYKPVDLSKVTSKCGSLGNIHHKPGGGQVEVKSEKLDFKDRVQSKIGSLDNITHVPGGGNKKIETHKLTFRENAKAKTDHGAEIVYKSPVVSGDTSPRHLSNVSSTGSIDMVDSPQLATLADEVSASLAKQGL
How it was run: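 ThT emission at 510 nm, taken 1 hr after adding 30 uM dye, quantifies aggregates formed when 20 uM heparin acts on human tau K18 P301L for 6 hr at 37 C.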
In the case of `O=C1CCSC2(C(=O)N(Cc3ccc(F)cc3)c3ccccc32)N1c1ccc(Cl)cc1` (stereo not given), the Potency is reported as inconclusive: 15.8 µM [inhibitor, partial curve]. `COc1ccc(Cl)cc1NC(=O)N1CCN(Cc2cc(=O)n3nc(-c4ccccc4)sc3n2)CC1` was tested, and the Potency was inconclusive: 28.2 µM [inhibitor, single point]. In the case of `CC1C(=O)C(C)C(c2ccc([N+](=O)[O-])cc2)NC1c1ccc([N+](=O)[O-])cc1` (stereo not given), the “activity, negative = inhibition” value is reported as inactive: -5.86%. For `CC1=C(C(=O)OCc2ccc3c(c2)OCO3)C(c2ccc(F)cc2)NC(=O)N1` (stereo not given), the “activity, negative = inhibition” value was inactive: 1.01%. With `CC1(C)Cc2c(sc3nnn(Cc4ccc(Cl)cc4)c(=O)c23)CO1` the Potency was inconclusive: 39.8 µM [inhibitor, single point]. For `Cc1ccc(S(=O)(=O)CC(CN2CCOCC2)N2CCOCC2)cc1` (stereo not given), the “activity, negative = inhibition” value was inactive: 2.95%. For `COCC(C)NS(=O)(=O)c1ccc(OC)cc1` (stereo not given), the “activity, negative = inhibition” value was inactive: -0.248%. For `COc1ccc(C2CC(c3ccc(Cl)cc3)Nc3nc(NC(=O)c4ccco4)nn32)cc1` (stereo not given), the “activity, negative = inhibition” value was inactive: -2.77%. `CCNc1nc(OC)nc(N2CCC(Cc3ccccc3)CC2)n1` was tested, and the Potency was inconclusive: 39.8 µM [inhibitor, single point]. With `N#C/C(=C\c1ccc(-c2ccccc2[N+](=O)[O-])o1)C(=O)N1CCOCC1` the “activity, negative = inhibition” value was inactive: -16.2%. `N#Cc1c(-c2ccncc2)c2c([nH]c1=S)CCCC2` was tested, and the Potency was inconclusive: 25.1 µM [inhibitor, partial curve, poor fit]. In the case of `O=C(NNC(=S)Nc1ccccc1)c1cccc(Br)c1`, the Potency is reported as inconclusive: 22.4 µM [inhibitor, partial curve]. For `COc1ccc([N+](=O)[O-])cc1NC(=O)CSc1ccc2ccccc2c1`, the “activity, negative = inhibition” value was inactive: -9.47%. In the case of `O=C(Nc1ccc(-c2nc3ccccc3o2)cc1)c1ccc(N2C(=O)C3C4C=CC(C4)C3C2=O)cc1` (stereo not given), the Potency is reported as inconclusive: 7.94 µM [activator, partial curve]. For `CC(C)c1nn2c(=O)cc(COC(=O)c3cccs3)nc2s1`, the “activity, negative = inhibition” value was inactive: -7.01%. `COc1ccc(-c2ccc(/C=C(\NC(=O)c3ccccc3)C(=O)N3CCOCC3)o2)cc1` was tested, and the Potency was inconclusive: 25.1 µM [inhibitor, single point]. `CC(=O)/C(=N\Nc1cccc(Cl)c1)Sc1nnc(-c2ccccc2)n1-c1ccccc1` was tested, and the “activity, negative = inhibition” value was inactive: -3.37%. `C=CCN(CC=C)c1ccc(N2C(=O)C3CCCCC3C2=O)cc1[N+](=O)[O-]` (stereo not given) was tested, and the Potency was inconclusive: 31.6 µM [inhibitor, partial curve]. With `N#CCc1nc(CSc2nc3ccccc3o2)cs1` the Potency was inconclusive: 11.2 µM [inhibitor, partial curve]. With `COc1ccccc1CNC(=O)C(C)n1c(=O)cc(-c2ccccc2)c2c(C)nn(C)c21` (stereo not given) the Potency was inconclusive: 0.316 µM [inhibitor, single point]. For `CCOC(=O)Cn1c(=O)oc2cc(S(=O)(=O)N3CCN(c4cccc(C)c4)C(C)C3)ccc21` (stereo not given), the “activity, negative = inhibition” value was inactive: -0.591%. For `CN1CCN(C(=O)CSc2nc(-c3cccs3)ccc2C#N)CC1`, the “activity, negative = inhibition” value was inactive: -6.09%. `CCOc1c(Br)cc(C2CC(=O)Nc3cc4c(cc32)OCO4)cc1OC` (stereo not given) was tested, and the Potency was inconclusive: 2.51 µM [inhibitor, full curve, poor fit]. With `Cc1ccccc1Nc1n[nH]c(C)c1[N+](=O)[O-]` the Potency was inconclusive: 11.2 µM [inhibitor, partial curve]. In the case of `FC(F)(F)c1ccc(C2[C@H]3CN(Cc4ccc(-c5ccccc5)cc4)[C@H](c4ccccc4)C34CC2(c2cccnc2)C4)cc1` (stereo not given in full), the Potency is reported as “inactive”. `Cc1ccc(NC(=O)c2oc3ccc4c(c3c2C)C(=O)CC(C)(C)O4)c(C)c1` was tested, and the “activity, negative = inhibition” value was inactive: -9.95%. With `O=C(CCN1C(=O)/C(=C\c2cccs2)SC1=S)Nc1ccccn1` the Potency was inconclusive: 5.01 µM [inhibitor, partial curve]. With `Cc1ccc(S(=O)(=O)N2CCC[C@H]2C(=O)OCC(=O)c2ccc3c(c2)NC(=O)CO3)cc1` the “activity, negative = inhibition” value was inactive: 5.35%. `CCC(C)C(=O)Nc1nc(C)c(-c2csc(Nc3ccc(Cl)cc3)n2)s1` (stereo not given) was tested, and the Potency was inconclusive: 14.1 µM [inhibitor, partial curve]. In the case of `O=C1NC(c2ccccc2Cl)=N/C1=C/c1ccco1`, the Potency is reported as inconclusive: 39.8 µM [inhibitor, single point]. In the case of `O=C(CN1CCCC1)N1CCN(c2ccccc2)CC1`, the Potency is reported as inconclusive: 5.01 µM [inhibitor, full curve, poor fit]. `CCOC(=O)c1c(S(=O)(=O)N2CCCC(C(=O)NCc3cccc(C)c3)C2)c(C)n(C)c1C` (stereo not given) was tested, and the “activity, negative = inhibition” value was inactive: 12%. With `CCOC(=O)c1cnn(-c2ccc(C(=O)Nc3ccc(C(C)=O)cc3)cc2)c1N` the Potency was inconclusive: 0.562 µM [inhibitor, full curve]. With `Cc1ccc2nc(-c3ccncc3)cc(-c3ccccc3)c2c1` the Potency was inconclusive: 39.8 µM [inhibitor, single point]. `CCc1cccc(C)c1NC(=O)CN1C(=O)C2(SCC(=O)N2c2cccc(F)c2)c2ccccc21` (stereo not given) was tested, and the “activity, negative = inhibition” value was inactive: 0.183%. In the case of `CCOC(=O)N1CCN(C(=O)CCC(=O)N2CCOc3ccc(C)cc32)CC1`, the Potency is reported as inconclusive: 44.7 µM [inhibitor, single point]. With `C/C(=C\C(=O)c1ccc(Cl)cc1)Nc1ccc(N2CCOCC2)cc1` the Potency was inconclusive: 1.12 µM [inhibitor, full curve]. With `Cc1cccc(N2CCN(c3cc(C)nc4nnnn34)CC2C)c1` (stereo not given) the Potency was inconclusive: 31.6 µM [inhibitor, single point]. For `CCOc1ccc(OCCCC(=O)NC2=NCCS2)cc1`, the Potency was inconclusive: 17.8 µM [inhibitor, partial curve]. In the case of `CCCCC1=CC2=C(c3ccco3)C(=O)C(C)(OC(=O)c3ccc(OC)cc3)C(=O)C2=CN1Cc1ccco1` (stereo not given), the Potency is reported as active: 8.91 µM. `CCCCOC(=O)Cn1c2ccc(OC)cc2c2nc3ccccc3nc21` was tested, and the Potency was inconclusive: 3.55 µM [inhibitor, full curve]. `COc1ccc(C(=O)CC2(O)C(=O)N(Cc3cccc(C(F)(F)F)c3)c3ccccc32)cc1` (stereo not given) was tested, and the “activity, negative = inhibition” value was inactive: -15.8%. With `Nc1c(N2CCOCC2)cc(Cl)c2nonc12` the Potency was active: 15.8 µM. `CC(=O)N1CCc2cc(Br)cc(S(=O)(=O)N3CCC(C(=O)Nc4ccc(C(C)C)cc4)CC3)c21` was tested, and the “activity, negative = inhibition” value was inactive: -0.727%. With `O=C(Nc1c(Cl)cc(Cl)cc1-c1nc2ccccc2s1)c1ccc(Br)o1` the Potency was inconclusive: 15.8 µM [inhibitor, partial curve, poor fit].
